From the RNAGym collection of RNA variant scans (doi:10.1073/pnas.2313332121) come the findings set out here.

Variants at the background level are over-represented here.

B1: TPR 5TU (parent)
chain: GGAUCUUCUCGAUCUAACAAAAAAGACAAAUCUGCCACAAAGCUUGAGAGCAUCUUCGGAUGCAGAGGCGGCAGCCUUCGGUGGCGCGAUAGCGCCAACGUUCUCAACUAUGACACGCAAAACGCGUGCUCCGUUGAAUGGAGUUUAUCAUG

Variants of B1 are the subject of the data set. Nature of the data set: polymerase ribozyme fitness, log enrichment relative to wild type (log ratio); higher = more active; in vitro selection for triplet polymerase activity. Put shortly: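 Both subunits of a heterodimeric triplet polymerase ribozyme were given their own mutant library, built by PCR and transcribed. Each library was annealed with a biotinylated primer, the partner subunit and triplets, incubated frozen at −7 °C, and its extended constructs gel-excised, captured on streptavidin beads and amplified by RT-PCR, all in one round done in triplicate. Fitness is the logarithm of genotype enrichment relative to wild-type enrichment, with replicates averaged by inverse-variance weighting. That logarithm is base 2, and Illumina-sequenced genotypes needed ≥10 input reads and ≥1 read per output.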
As for G86U C108U, the “polymerase ribozyme fitness (log ratio)” value was -4.14.
Next, C85G A121C G141U U151C: at most -4.2.
Next, C87A A121C: at most -4.2; G84U G94C U101G: at most -4.2; C85U C125U: -0.156.
Next, G84U U127A U134G: at most -4.2; G84A G100C U134A G141C: at most -4.2.
With G86U A107G, the “polymerase ribozyme fitness (log ratio)” value was at most -4.2.
As for C85U C87G C95G C131A U134G A147U, the figure is at most -4.2.
Next, C85U A150C G152U: -3.38; C85G G126A U146A: -1.79.
As for G86A G143A, the figure is -1.25; as for G86C A98U A142U U148A, at most -4.2; as for C85G C93U, at most -4.2.
Turning to C85G G92C C99A U146A, the “polymerase ribozyme fitness (log ratio)” value is at most -4.2.
Next, G86C A107G U111C A115U: at most -4.2.
Next, C85A A107U A147C U151C: at most -4.2.
Next, G86U U101G U111A: at most -4.2.
As to C85G G140C, the “polymerase ribozyme fitness (log ratio)” value was at most -4.2.
As for C85U A98G U111G, the figure is at most -4.2.
As for C85G A121G C132U, the figure is -2.88.
As for G86A C99G, the figure is -3.06; as for G84A C99U G100U U144A, -4.12; as for G84A U109G, -1.95.
Consider G84U C129U, for which the “polymerase ribozyme fitness (log ratio)” value is -1.42.
Next, G84U A138U: at most -4.2; G84U A106C A107C G124A U151A: at most -4.2.
With G86U A89U A113U C131G, the “polymerase ribozyme fitness (log ratio)” value is at most -4.2.
As for G84U C87G C118U A119U G126A, the figure is at most -4.2.
As for C85A U135A, the figure is -0.589.
Next, C85A A147G: -0.743.
Consider G84C C93U C108U, for which the “polymerase ribozyme fitness (log ratio)” value is at most -4.2.
As for C85A G124U, the figure is -1.9; as for G84U C131G, -3.96.
Next, C85G U109G U144C: at most -4.2.
As for C85A U127A U148A, the figure is at most -4.2; as for G84A G94C U151C, at most -4.2.
Consider G86A A150C, for which the “polymerase ribozyme fitness (log ratio)” value is at most -4.2.
On to G84A G88A, for which the “polymerase ribozyme fitness (log ratio)” value was at most -4.2.
Next, C85A C129G: -2.95; G86A C87A A91C A120C: at most -4.2; G86A A97G A137C G140A: at most -4.2.
For the variant C85G U102C, the “polymerase ribozyme fitness (log ratio)” value was at most -4.2.
As for G86U C99G C116G G128U, the figure is at most -4.2; as for G84U G126U G133U, at most -4.2; as for C85A U135G A137U, at most -4.2.
In the case of G84A G136A U148C, the “polymerase ribozyme fitness (log ratio)” value is -1.66.
Next, C85U A106C A150C: at most -4.2.
As for C85U C87U U144G, the figure is 0.338.
Next, G84U A89G: -3.82.
As for C85U C116U, the “polymerase ribozyme fitness (log ratio)” value was -0.233.
Next, C85G C105G A113U: at most -4.2; C85U U134A: -3.04.
Next, C85U U134G: -2.89; C85U A97C C99G U104C A138G: at most -4.2; G86A A89U A107U C118U G140U U144G: at most -4.2.
Regarding G86A A91U G94C U111C, the “polymerase ribozyme fitness (log ratio)” value was at most -4.2.
Turning to C85A G126A C149G, the “polymerase ribozyme fitness (log ratio)” value is at most -4.2.
As for C85A C103G A147U, the figure is -2.48.
Regarding G84U C87G G88C G143C, the “polymerase ribozyme fitness (log ratio)” value is at most -4.2.
As for C85G G94U C118G, the “polymerase ribozyme fitness (log ratio)” value is -0.928.
Next, C85G C93U C131A U148C: at most -4.2; C85A A91G: -3.36; C87A C103U A106U C116G G124C U127G: at most -4.2.
As for C85A C105U, the figure is -1.89; as for G84A G136C, -3.25.
As for G84A G94A A98C G124A, the figure is -0.811; as for C85A G126C G133A, at most -4.2.
Take G86U U151A: the “polymerase ribozyme fitness (log ratio)” value was at most -4.2.
In the case of G86U G140U, the “polymerase ribozyme fitness (log ratio)” value was -3.83.
With G86U C114G U134G, the “polymerase ribozyme fitness (log ratio)” value is at most -4.2.
As for G86U A142G, the figure is -2.35.
As for C85A C125A, the figure is -2.27.
For the variant C85U C125G G136A, the “polymerase ribozyme fitness (log ratio)” value was -0.203.
Next, G86U G143A: -2.53; C85U A89G A106G G117A G126C G143C: at most -4.2.
Turning to G86U U109G G140U G141A, the “polymerase ribozyme fitness (log ratio)” value was at most -4.2.
As for G84U G92A, the figure is at most -4.2; as for G84U C87A C116U, at most -4.2; as for C85U C132U, -0.776.
As for C87A A150C, the figure is at most -4.2; as for C85U G126C A142C, at most -4.2.
On to G86A A113G C118G G136U A150U U151C, for which the “polymerase ribozyme fitness (log ratio)” value was at most -4.2.
Consider G84U G133U C149U, for which the “polymerase ribozyme fitness (log ratio)” value is at most -4.2.
Turning to C85U G126U U139A U144C, the “polymerase ribozyme fitness (log ratio)” value was -3.59.
As for C85A A122G, the figure is -2.54.
As for C85G G141A C149G, the figure is at most -4.2.
As for C85G C87U A110G, the figure is at most -4.2; as for G84C C123G U146G, -2.7; as for G84U U130A U145C, -4.13.
Regarding G86C A97G U135C G136A U146C, the “polymerase ribozyme fitness (log ratio)” value is at most -4.2.
As for G84A G88U C108U C123U, the figure is at most -4.2; as for C85A C125A A137G, -2.28.
Next, G86C C116U: -2.44; C85A A106G: -2.01.
For the variant G86A A107U, the “polymerase ribozyme fitness (log ratio)” value was -3.39.
For the variant G86A G143C A147G, the “polymerase ribozyme fitness (log ratio)” value was at most -4.2.
As for G84C A91U, the figure is at most -4.2.
As for G84C C85A A98G C103U G140U, the figure is at most -4.2; as for G84U G86A C93U C123U, -1.15; as for C87A A107G C123U G140U, at most -4.2.
As for C85U U146G, the “polymerase ribozyme fitness (log ratio)” value was -0.713.
C85U U146A: the “polymerase ribozyme fitness (log ratio)” value was -0.167.
In the case of G86A A110G U145A C149G, the “polymerase ribozyme fitness (log ratio)” value was at most -4.2.
Next, C85A C99G: -3.49; C85A C99A: -2.8.
As for G84A U135A, the figure is -1.69.
For G84U A137U C149A, the “polymerase ribozyme fitness (log ratio)” value is at most -4.2.
Next, G84U C108A G124U A137C U145C: at most -4.2; G84A C123U: -0.156.
In the case of C85U G128U C129A U146G, the “polymerase ribozyme fitness (log ratio)” value was at most -4.2.
As for G84C C85A G92U C96A A97C C105U, the figure is -2.61; as for G84C C118A C125U G136U A142U, at most -4.2; as for G84A U144A, -1.65.
Next, C85A C96U G100U G141U: at most -4.2.
As for G84U C93G, the figure is at most -4.2; as for C85U C105U A106C U135C G141A, -3.94.
Consider C85U A115U, for which the “polymerase ribozyme fitness (log ratio)” value was -2.38.
As for C85A G128A U144G, the figure is at most -4.2.
For G84A G143U, the “polymerase ribozyme fitness (log ratio)” value was -2.51.
Next, C85U G128U C149A: at most -4.2; C85G C125A U130C: -1.52; G84C U148C: at most -4.2.
Turning to G84U G94A C96A, the “polymerase ribozyme fitness (log ratio)” value was -3.87.
As for C85U U127A, the figure is -3.36.
As for C85U U127C, the figure is -2.51; as for C85U U148A, -3.08.
As for G84U U90A C108A, the figure is at most -4.2; as for C85G G94U, -0.835; as for C85U C87U A107U, at most -4.2.
For G86U A113G C114G G133U, the “polymerase ribozyme fitness (log ratio)” value is at most -4.2.
As to C87A C105A A115G G136U, the “polymerase ribozyme fitness (log ratio)” value is at most -4.2.
Next, G84A C103G C105U: at most -4.2; G84U A98U C132U U139C: at most -4.2.
Next, C87A A106C: at most -4.2; C87A C93U C95U G100A C116U A121G C129A U130G: at most -4.2; C85G G126U A142C: at most -4.2.
Next, G84U C116U G143C: -3.37.
Take C85A C149U: the “polymerase ribozyme fitness (log ratio)” value is -1.59.
Take C85A C96U A137U U144A: the “polymerase ribozyme fitness (log ratio)” value is at most -4.2.
Turning to C85A C95U G140A, the “polymerase ribozyme fitness (log ratio)” value was at most -4.2.
Next, G84U C87U U90G G126A U130A: at most -4.2; G86A C118U G141C: -1.77; C85U C87U C108U C114A: at most -4.2.
As for C85U C93G A150G, the figure is at most -4.2.
Next, C85U G86U A91U: at most -4.2.
For the variant G86U C105A C118G U151A, the “polymerase ribozyme fitness (log ratio)” value was at most -4.2.
Turning to C85A U145G, the “polymerase ribozyme fitness (log ratio)” value is -1.06.
Next, G86A C87G: -3.97; C87A C93A C95G A121U U127G G140A: at most -4.2.
For G84A G133C G143U, the “polymerase ribozyme fitness (log ratio)” value was -3.92.
As for C87A C108G U127C, the figure is at most -4.2.
On to C87A A89U C129G, for which the “polymerase ribozyme fitness (log ratio)” value is at most -4.2.
Take C85U C87U A107U C131A G140U G141C U144A U146G: the “polymerase ribozyme fitness (log ratio)” value is at most -4.2.
As for C87A A120C, the figure is at most -4.2; as for C85G A122C, -1.98; as for G84U C99G A147C, at most -4.2.
For C85A G117A A138G, the “polymerase ribozyme fitness (log ratio)” value was -4.18.
As for C85G G86U U90A G140U C149G, the figure is at most -4.2; as for G84C C85G, -4.03.
As for C87A A107C U139C U151A, the figure is at most -4.2.
As for G84U G86U C129U G152A, the figure is at most -4.2; as for C85G G124A G133A, at most -4.2; as for G84U G92C U127C A142C, at most -4.2.
With G86U C105G G136U, the “polymerase ribozyme fitness (log ratio)” value was at most -4.2.
Turning to G84U C87A G136A, the “polymerase ribozyme fitness (log ratio)” value was at most -4.2.
As for G84C C125G, the figure is -1.94.
